From PubChem BioAssay (NCATS)
Inconclusive results, whose numbers are uncertain, are shown with a selection of clear calls. For part of these data: A potency beside an inconclusive call is a rough fit, not a confirmed value. For part of these data: “Side channel” marks fits to a control or component signal instead of the main read-out. Activity calls are given as the source filed them. Unless noted, calls come from the whole dose curve; as a rule, active = well fitted curve in the direction sought with a large enough effect; inconclusive = small, poorly fitted or top-dose-only effect, or another doubt; inactive = no such curve, though single readings can be large; an effect the other way counts as inactive or inconclusive.

How the values were obtained:
[1] = Cell Viability - LYMP2-002 (AID 977); details: LYMP2-002 lymphoblastoid cell viability, qHTS; activity change, negative = cytotoxic: at 92.2 µM (top of the series);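 note: plate controls were DMSO only for no effect and 92 µM tetraoctylammonium bromide for full effect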
Summary of the method: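 Human lymphoblastoid LYMP2-002 cells, 2500 per well, exposed to compounds for 24 h at 37 C in complete medium; viability read as intracellular ATP by CellTiter-Glo luminescence, AC50 from Hill fits.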

[2] = Cell Viability - LYMP2-006 (AID 978); note: potency is the fitted concentration of half-maximal effect; nearly all actives have a fitted effect of over 60% in size
Summary of the method: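 Potency values are Hill-fit AC50s for decreases in intracellular ATP (CellTiter-Glo luminescence). LYMP2-006 lymphoblastoid cells, 2500 per well, were exposed to compound in complete culture medium for 24 hr at 37 C.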

[3] = Cell Viability - LYMP2-007 (AID 979); details: LYMP2-007 lymphoblastoid cell viability; activity change, negative = cytotoxicity: at 92.2 µM (top of the series);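 note: potency is the fitted concentration of half-maximal effect; cells exposed to compound for 24 h before reading; nearly all actives have a fitted effect of over 60% in size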
Summary of the method: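 Human lymphoblastoid LYMP2-007 cells (2500/well) preincubated 5 h at 37 C, then treated 24 h at 37 C in complete medium. Viability by CellTiter-Glo ATP luminescence after 30 min at room temperature; AC50 from Hill fits.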

[4] = Cell Viability - LYMP2-008 (AID 980); details: LYMP2-008 lymphoblastoid cell viability, qHTS; note: potency is the fitted concentration of half-maximal effect; nearly all actives have a fitted effect of over 60% in size
Summary of the method: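 LYMP2-008 lymphoblastoid cells (2500/well) plated 5 h, then treated 24 h at 37 C in complete medium. Viability read as intracellular ATP by CellTiter-Glo luminescence after 30 min at room temperature; AC50 from Hill fits.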

[5] = Cell Viability - LYMP2-010 (AID 981); note: potency is the fitted concentration of half-maximal effect; nearly all actives have a fitted effect of over 55% in size
Summary of the method: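 Human lymphoblastoid LYMP2-010 cells (2500/well) treated 24 h at 37 C in complete medium; viability read as intracellular ATP by CellTiter-Glo luminescence. AC50 from Hill fits of concentration-response data; tetraoctylammonium bromide positive control.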

[6] = Cell Viability - LYMP2-014 (AID 983); note: potency is the fitted concentration of half-maximal effect; nearly all actives have a fitted effect of over 50% in size
Summary of the method: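 LYMP2-014 human lymphoblastoid cells, 2500/well, treated 24 h at 37 C in complete medium; viability by CellTiter-Glo ATP luminescence after 30 min at room temperature. AC50 from Hill fits of qHTS concentration-response; tetraoctylammonium bromide positive control.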

[7] = Cell Viability - LYMP2-016 (AID 984); details: LYMP2-016 lymphoblastoid cell viability, qHTS; activity change, negative = cytotoxicity: at 92.2 µM (top of the series); note: % is set by controls: 0 for no effect and ±100 for the full control effect; nearly all actives have a fitted effect of over 55% in size
Summary of the method: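 Cytotoxicity was scored by luminescent ATP content (CellTiter-Glo) after 24 h compound exposure at 37 C of a human lymphoblastoid line at 2500 cells/well. Concentration-response data were fitted to the Hill equation for AC50.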

[8] = Cell Viability - LYMP2-018 (AID 985);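 note: potency is the fitted concentration of half-maximal effect; compound exposure lasted 24 hr at 37 °C; nearly all actives have a fitted effect of over 50% in size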
Summary of the method: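 Human lymphoblastoid LYMP2-018 cells, 2500/well, settled 5 hr at 37 C then exposed to compound 24 hr at 37 C; intracellular ATP measured by CellTiter-Glo luminescence. AC50 from Hill-equation concentration-response fits.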

[9] = Cell Viability - LYMP2-020 (AID 986); details: activity change, negative = viability loss: at 92.2 µM (top of the series); note: potency is the fitted concentration of half-maximal effect; nearly all actives have a fitted effect of over 55% in size
Summary of the method: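 Human lymphoblastoid LYMP2-020 cells (2500/well) preincubated 5 h at 37 C, then treated 24 h at 37 C. Viability measured as intracellular ATP by CellTiter-Glo luminescence after 30 min at room temperature; AC50 from Hill fits.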

[10] = Cell Viability - LYMP2-022 (AID 987); note: potency is the fitted concentration of half-maximal effect; nearly all actives have a fitted effect of over 55% in size
Summary of the method: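 LYMP2-022 lymphoblastoid cells (2500/well, complete medium) were treated with compounds for 24 hours at 37 C; intracellular ATP was then read by CellTiter-Glo luminescence after 30 min at room temperature. AC50 values were derived from Hill-equation fits.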

[11] = Cell Viability - LYMP2-024 (AID 988); details: LYMP2-024 lymphoblastoid cell viability; activity change, negative = cytotoxicity: at 92.2 µM (top of the series); note: potency is the fitted concentration of half-maximal effect; nearly all actives have a fitted effect of over 60% in size
Summary of the method: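 Human lymphoblastoid LYMP2-024 cells (2500/well) rested 5 hr, then treated with compound for 24 hr at 37 C in complete medium. Viability was measured as intracellular ATP by CellTiter-Glo luminescence. AC50 values came from Hill-equation fits.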

[12] = Cell Viability - LYMP1-002 - Assay at 40 hr (AID 994)
Summary of the method: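 LYMP1-002 human lymphoblastoid cells (2500/well, complete medium) were treated with compounds for 40 hr at 37 C. Intracellular ATP was measured by CellTiter-Glo luminescence, and AC50 values came from Hill-equation fits of concentration-response data; tetraoctylammonium bromide was the positive control.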

[13] = target: Bile acid receptor (Homo sapiens) (UniProt Q96RI1); test: qHTS assay for small molecule antagonists of farnesoid X receptor signaling (AID 588526; calls by dose curve; note: potency is the fitted concentration of half-maximal effect); details: HEK293T FXR-UAS-bla, beta-lactamase ratio, antagonist mode; activity change, negative = inhibition: at 76.7 µM (top of the series)
Summary of the method: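 Antagonist mode: titrated compounds tested against chenodeoxycholic acid stimulation (normalized to 50 uM CDCA and DMSO) in GeneBLAzer HEK293T cells for 16 h. Beta-lactamase read by CCF4 fluorescence; IC50 from Hill fits.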

[14] = target: Glucocorticoid receptor (Homo sapiens) (UniProt P04150); test: qHTS assay for small molecule agonists of glucocorticoid receptor signaling (AID 588532; active = well fitted curve in the direction sought with a large enough effect in the signal ratio, with a control signal flat; inconclusive = small, poorly fitted or top-dose-only effect, or a change in a side signal; inactive = no such curve, though single readings can be large or run the other way; the % refers to the signal ratio;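 note: 100% = dexamethasone at 0.1 µM and 0% = DMSO only wells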); details: HeLa MMTV-bla, beta-lactamase ratio, agonist, 18 h; activation: hits give high values, percent of dexamethasone control, DMSO zero
Sequence of UniProt P04150 (P04150 whole entry, looked up): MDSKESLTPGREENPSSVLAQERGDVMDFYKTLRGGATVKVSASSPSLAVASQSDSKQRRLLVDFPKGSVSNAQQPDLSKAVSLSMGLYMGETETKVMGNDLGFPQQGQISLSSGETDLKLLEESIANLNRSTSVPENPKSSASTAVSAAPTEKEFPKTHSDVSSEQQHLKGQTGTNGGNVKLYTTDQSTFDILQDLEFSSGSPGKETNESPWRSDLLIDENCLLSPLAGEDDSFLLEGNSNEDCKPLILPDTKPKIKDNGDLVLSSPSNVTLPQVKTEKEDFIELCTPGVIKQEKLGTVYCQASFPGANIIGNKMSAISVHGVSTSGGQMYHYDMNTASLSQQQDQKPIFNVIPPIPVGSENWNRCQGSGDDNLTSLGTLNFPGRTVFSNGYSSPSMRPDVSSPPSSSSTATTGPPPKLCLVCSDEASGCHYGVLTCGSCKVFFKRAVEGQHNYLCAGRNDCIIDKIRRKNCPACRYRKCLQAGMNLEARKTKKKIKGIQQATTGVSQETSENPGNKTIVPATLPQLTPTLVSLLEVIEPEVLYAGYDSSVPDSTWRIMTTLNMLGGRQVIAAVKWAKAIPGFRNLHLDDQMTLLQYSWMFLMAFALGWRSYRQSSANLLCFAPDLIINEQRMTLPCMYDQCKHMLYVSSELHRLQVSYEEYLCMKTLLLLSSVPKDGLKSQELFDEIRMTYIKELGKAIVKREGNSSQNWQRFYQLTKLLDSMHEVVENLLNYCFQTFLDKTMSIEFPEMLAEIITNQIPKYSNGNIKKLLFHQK
Summary of the method: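 HeLa GRE-bla reporter cells; 18 h compound exposure at 37 C; 2 h CCF4 loading at room temperature; fluorescence at 460 and 530 nm; EC50 by Hill equation.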

[15] = target: Peroxisome proliferator-activated receptor delta (Homo sapiens) (UniProt Q03181); test: qHTS assay for small molecule antagonists of peroxisome proliferator-activated receptor delta signaling (AID 588535; active = well fitted inhibition curve with a large enough effect in the signal ratio, with a control signal flat, not every such curve was filed as active; inconclusive = small, poorly fitted or top-dose-only effect, or effect the other way, or a change in a side signal; inactive = no such curve, though single readings can be large or run the other way; the % refers to the signal ratio; note: potency is the fitted concentration of half-maximal effect); details: HEK293T PPARd-UAS-bla, beta-lactamase FRET ratio, 18 h; activity change, negative = inhibition: at 76.7 µM (top of the series)
Sequence of UniProt Q03181 (Q03181 whole entry, looked up): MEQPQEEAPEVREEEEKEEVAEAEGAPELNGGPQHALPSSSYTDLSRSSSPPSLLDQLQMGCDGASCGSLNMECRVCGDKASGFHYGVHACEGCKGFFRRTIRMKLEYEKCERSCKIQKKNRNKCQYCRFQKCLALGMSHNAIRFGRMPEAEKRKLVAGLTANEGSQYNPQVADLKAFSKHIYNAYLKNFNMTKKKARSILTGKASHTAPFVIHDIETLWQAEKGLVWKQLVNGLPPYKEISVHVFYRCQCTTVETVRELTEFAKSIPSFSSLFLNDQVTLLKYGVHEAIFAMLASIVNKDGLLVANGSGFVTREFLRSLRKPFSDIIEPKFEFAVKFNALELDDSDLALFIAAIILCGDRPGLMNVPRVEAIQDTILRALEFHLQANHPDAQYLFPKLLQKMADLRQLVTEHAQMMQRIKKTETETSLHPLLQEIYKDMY
Summary of the method: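 Antagonist-mode beta-lactamase reporter (GeneBLAzer PPAR-delta-UAS-bla) in HEK293T cells, 2% charcoal/dextran FBS, 4000 cells/well. Compound titrations, 18 h at 37 C; CCF4 ratio read, IC50 and efficacy from Hill fits.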

[16] = target: Peroxisome proliferator-activated receptor gamma (Homo sapiens) (UniProt P37231); test: qHTS assay for small molecule agonists of peroxisome proliferator-activated receptor gamma signaling (AID 588536; active = well fitted curve in the direction sought with a large enough effect in the signal ratio, with a control signal flat, not every such curve was filed as active; inconclusive = small, poorly fitted or top-dose-only effect, or effect the other way, or a change in a side signal; inactive = no such curve, though single readings can be large or run the other way; the % refers to the signal ratio;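 note: 0% = DMSO basal wells and 100% = rosiglitazone at 2 µM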); details: HEK293 PPARg-UAS-bla, beta-lactamase ratio, 16 h; activation: at 76.7 µM (top of the series), percent of rosiglitazone response, DMSO as zero
Summary of the method: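 HEK293 UAS-bla reporter line, 1% charcoal/dextran FBS; titration, 16 h, 37 C; CCF4 loading 2 h RT; fluorescence 460/530 nm. Normalized to rosiglitazone 2 uM = 100%, DMSO = 0%.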

[17] = target: Peroxisome proliferator-activated receptor gamma (Homo sapiens) (UniProt P37231); test: qHTS assay for small molecule antagonists of peroxisome proliferator-activated receptor gamma signaling (AID 588537; active = well fitted inhibition curve with a large enough effect in the signal ratio, with a control signal flat, not every such curve was filed as active; inconclusive = small, poorly fitted or top-dose-only effect, or effect the other way, or a change in a side signal; the % refers to the signal ratio;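 note: reporter cells co-stimulated with 50 nM rosiglitazone agonist during compound treatment; % of control where 0% means no effect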); details: HEK293 PPARg-UAS-bla, beta-lactamase ratio, antagonist mode; activity, negative = inhibition: at 76.8 µM (top of the series)
Summary of the method: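 PPARγ-UAS-bla HEK293 cells (3000/well) in 1% charcoal/dextran-stripped FBS are treated with compound, then stimulated with 50 nM rosiglitazone for 16 h at 37 °C. Read-out is CCF4 β-lactamase fluorescence after 2 h at RT. IC50 comes from Hill fits normalised to rosiglitazone and DMSO.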

[18] = target: Retinoic acid receptor RXR-alpha (Homo sapiens) (UniProt P19793); test: qHTS assay for small molecule agonists of retinoid X receptor alpha signaling (AID 588544; calls by dose curve; note: potency is the fitted concentration of half-maximal effect); details: HEK293T RXRa-UAS-bla, beta-lactamase reporter, 18 h; activation: at 76.7 µM (top of the series) unless noted
Sequence of UniProt P19793 (P19793 whole entry, looked up): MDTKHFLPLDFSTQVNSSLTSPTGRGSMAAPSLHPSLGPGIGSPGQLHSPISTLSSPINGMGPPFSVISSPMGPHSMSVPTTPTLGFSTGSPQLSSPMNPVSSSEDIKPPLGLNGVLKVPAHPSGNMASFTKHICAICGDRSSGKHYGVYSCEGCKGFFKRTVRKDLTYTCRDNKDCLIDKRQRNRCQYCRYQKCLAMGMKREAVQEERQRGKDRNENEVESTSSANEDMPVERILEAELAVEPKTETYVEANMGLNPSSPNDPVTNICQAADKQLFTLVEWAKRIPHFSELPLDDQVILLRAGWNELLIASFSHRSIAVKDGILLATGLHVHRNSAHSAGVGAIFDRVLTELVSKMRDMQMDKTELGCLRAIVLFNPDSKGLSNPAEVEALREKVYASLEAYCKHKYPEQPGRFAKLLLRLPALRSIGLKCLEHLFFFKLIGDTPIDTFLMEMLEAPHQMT

[19] = target: Thyroid hormone receptor beta (Homo sapiens) (UniProt P10828); test: qHTS assay for small molecule agonists of thyroid hormone receptor beta signaling (AID 588545; calls by dose curve;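 note: 0% = DMSO only and 100% = 10 nM T3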); details: TR-UAS-bla GripTite HEK 293, beta-lactamase ratio, agonist mode, 18 h; activation: at 76.7 µM, percent of T3 response, DMSO as zero
Sequence of UniProt P10828 (P10828 whole entry, looked up): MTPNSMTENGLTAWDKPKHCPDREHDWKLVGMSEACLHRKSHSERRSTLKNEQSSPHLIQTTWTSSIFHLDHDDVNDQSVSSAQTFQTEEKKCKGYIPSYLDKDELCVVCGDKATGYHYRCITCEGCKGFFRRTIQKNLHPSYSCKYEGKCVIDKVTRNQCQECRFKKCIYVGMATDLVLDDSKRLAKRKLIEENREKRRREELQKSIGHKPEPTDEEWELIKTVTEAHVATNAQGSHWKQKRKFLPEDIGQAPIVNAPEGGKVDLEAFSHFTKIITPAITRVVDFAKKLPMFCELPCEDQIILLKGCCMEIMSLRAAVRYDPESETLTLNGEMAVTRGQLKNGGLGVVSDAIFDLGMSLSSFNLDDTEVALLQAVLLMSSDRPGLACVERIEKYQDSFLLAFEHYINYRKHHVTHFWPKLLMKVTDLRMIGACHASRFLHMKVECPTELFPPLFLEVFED
Summary of the method: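 Stimulation of a TR-driven beta-lactamase reporter was quantified in GripTite HEK 293 cells. Compound series ran for 18 hrs; curves were normalized to T3 and DMSO controls and fitted to yield EC50.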

[20] = target: Retinoic acid receptor RXR-alpha (Homo sapiens) (UniProt P19793); test: qHTS assay for small molecule antagonists of retinoid X receptor alpha signaling (AID 588546; active = well fitted inhibition curve with a large enough effect in the signal ratio, with a control signal flat, not every such curve was filed as active; inconclusive = small, poorly fitted or top-dose-only effect, or effect the other way, or a change in a side signal; inactive = no such curve, though single readings can be large or run the other way; the % refers to the signal ratio; note: potency is the fitted concentration of half-maximal effect); details: HEK293T RXRa-UAS-bla, beta-lactamase ratio, antagonist mode
Summary of the method: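 Beta-lactamase reporter inhibition, read as CCF4 fluorescence ratio (ex 405, em 460/530 nm) after 2 h at RT. HEK293T UAS-bla cells, 2500/well, were stimulated with 9-cis-RA at 500 or 100 nM final alongside test compound for 18 h at 37 C.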

[21] = target: Thyroid hormone receptor beta (Homo sapiens) (UniProt P10828); test: qHTS assay for small molecule antagonists of thyroid hormone receptor beta signaling (AID 588547; active = well fitted inhibition curve with a large enough effect in the signal ratio, with a control signal flat, not every such curve was filed as active; inconclusive = small, poorly fitted or top-dose-only effect, or effect the other way, or a change in a side signal; the % refers to the signal ratio;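 note: cells stimulated with 0.4 nM T3 agonist during compound exposure; % is set by controls: 0 for no effect and ±100 for the full control effect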); details: TR-UAS-bla HEK293, beta-lactamase ratio, antagonist mode, 18 h
Summary of the method: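 TR-UAS-bla GripTite HEK293 cells in 2% charcoal/dextran FBS medium; compounds 0.59 nM to 92 uM with T3 at 0.4nM final, 18 h at 37 C. Beta-lactamase read by CCF4 fluorescence (460/530 nm); Hill fits gave IC50 and efficacy.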

[22] = qHTS assay to identify small molecules that stimulate interleukin-8 (IL-8) secretion (AID 651758; active = well fitted activation curve with a large enough effect in the signal ratio; inconclusive = small, poorly fitted or top-dose-only effect, or effect the other way, or a change in a side signal; the % refers to the signal ratio; note: 0% is about no effect); details: HTRF ratio (665/615); activation: at 92.2 µM (top of the series)
Summary of the method: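 THP-1 cells (2000/well) exposed to compound 16 h at 37 C; secreted IL-8 then detected by HTRF with cryptate- and XL665-labelled anti-IL-8 antibody pair after 1-3 h at room temperature.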

[23] = qHTS assay for small molecule antagonists of the retinoid-related orphan receptor gamma (ROR-gamma) signaling pathway - cell viability counter screen (AID 720652; active = well fitted curve in the direction sought with a large enough effect in the repeat runs; inconclusive = weak or mixed curves; inactive = no such curve, though single readings can be large; an effect the other way counts as inactive or inconclusive;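 note: potency is the fitted concentration of half-maximal effect; compound exposure lasted 16 hr before ATP read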)
Summary of the method: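 CHO cells carrying TET-inducible ROR and RORE-luciferase reporter, plated 5 hr, then dosed with compound plus doxycycline. After 16 hr at 37 C, viability read as intracellular ATP by CellTiter-Glo luminescence.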

[24] = qHTS assay for cell viability of HEK293 cells (AID 743288); details: ATP luminescence (CellTiter-Glo), 18 h; max response: hits give low values; note: potency is the fitted concentration of half-maximal effect; nearly all actives have a fitted effect of over 50% in size
Summary of the method: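 Total intracellular ATP, measured with a luciferase-coupled reagent, indicates the number of viable HEK293 cells. Exposure to test chemicals lasts 18 h at 37 C in 1,536-well format at 2,000 cells/well.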
Tags give direction and shape of the fitted curve or compound fluorescence and quenching.

O=C=Nc1ccc(Cl)c(Cl)c1
activity change, negative = cytotoxic [1]: inconclusive: -42.7% [cytotoxic]
Potency [2]: inconclusive: 31.6 µM [cytotoxic, full curve, poor fit]
Potency [3]: inconclusive: 39.8 µM [cytotoxic, partial curve]
Potency [4]: inconclusive: 50.1 µM [cytotoxic, partial curve]
Potency [5]: inconclusive: 79.4 µM [cytotoxic, partial curve, poor fit]
Potency [6]: inconclusive: 79.4 µM [cytotoxic, single point]
activity change, negative = cytotoxicity [7]: inconclusive: -44.5% [cytotoxic]
Potency [8]: inconclusive: 50.1 µM [cytotoxic, partial curve, poor fit]
Potency [9]: inconclusive: 79.4 µM [cytotoxic, single point]
Potency [10]: inconclusive: 50.1 µM [cytotoxic, partial curve, poor fit]
Potency [11]: inconclusive: 79.4 µM [cytotoxic, single point]
Potency [12]: inconclusive: 79.4 µM [cytotoxic, single point]
Potency [13]: inconclusive: 44.7 µM [side channel, rising, single point]
activation [14]: inactive: 5.86%
Potency [15]: inconclusive: 25.1 µM [side channel, rising, full curve, poor fit]
activation [16]: inconclusive: -11.9%
activity, negative = inhibition [17]: inconclusive: -30.1%
Potency [18]: inconclusive: 8.91 µM [falling, full curve]
activation [19]: inconclusive: -15.3%
Potency [20]: active: 14.1 µM
activity change % (negative = inhibition) [21]: inconclusive: -58.1%
activation [22]: inconclusive: -22.4%
Potency [23]: inconclusive: 37.6 µM [cytotoxic, partial curve, poor fit]
Potency [24]: inconclusive: 70.8 µM [cytotoxic, single point]
